Results reported in article PMC4336329 (PLoS ONE, 2015).
The whole screen tested about 310,000 compounds, of which about 2,200 (0.71%) showed an effect of 50% or more. The effect is printed as a negative number. The list shows a part of the results.

These compounds were tested against human ether-à-go-go-related gene (hERG) potassium channel (human, UniProt Q12809) (assay: primary screen, population patch clamp on CHO cells stably expressing hERG).
human ether-à-go-go-related gene (hERG) potassium channel, sequence (Q12809 whole entry, looked up): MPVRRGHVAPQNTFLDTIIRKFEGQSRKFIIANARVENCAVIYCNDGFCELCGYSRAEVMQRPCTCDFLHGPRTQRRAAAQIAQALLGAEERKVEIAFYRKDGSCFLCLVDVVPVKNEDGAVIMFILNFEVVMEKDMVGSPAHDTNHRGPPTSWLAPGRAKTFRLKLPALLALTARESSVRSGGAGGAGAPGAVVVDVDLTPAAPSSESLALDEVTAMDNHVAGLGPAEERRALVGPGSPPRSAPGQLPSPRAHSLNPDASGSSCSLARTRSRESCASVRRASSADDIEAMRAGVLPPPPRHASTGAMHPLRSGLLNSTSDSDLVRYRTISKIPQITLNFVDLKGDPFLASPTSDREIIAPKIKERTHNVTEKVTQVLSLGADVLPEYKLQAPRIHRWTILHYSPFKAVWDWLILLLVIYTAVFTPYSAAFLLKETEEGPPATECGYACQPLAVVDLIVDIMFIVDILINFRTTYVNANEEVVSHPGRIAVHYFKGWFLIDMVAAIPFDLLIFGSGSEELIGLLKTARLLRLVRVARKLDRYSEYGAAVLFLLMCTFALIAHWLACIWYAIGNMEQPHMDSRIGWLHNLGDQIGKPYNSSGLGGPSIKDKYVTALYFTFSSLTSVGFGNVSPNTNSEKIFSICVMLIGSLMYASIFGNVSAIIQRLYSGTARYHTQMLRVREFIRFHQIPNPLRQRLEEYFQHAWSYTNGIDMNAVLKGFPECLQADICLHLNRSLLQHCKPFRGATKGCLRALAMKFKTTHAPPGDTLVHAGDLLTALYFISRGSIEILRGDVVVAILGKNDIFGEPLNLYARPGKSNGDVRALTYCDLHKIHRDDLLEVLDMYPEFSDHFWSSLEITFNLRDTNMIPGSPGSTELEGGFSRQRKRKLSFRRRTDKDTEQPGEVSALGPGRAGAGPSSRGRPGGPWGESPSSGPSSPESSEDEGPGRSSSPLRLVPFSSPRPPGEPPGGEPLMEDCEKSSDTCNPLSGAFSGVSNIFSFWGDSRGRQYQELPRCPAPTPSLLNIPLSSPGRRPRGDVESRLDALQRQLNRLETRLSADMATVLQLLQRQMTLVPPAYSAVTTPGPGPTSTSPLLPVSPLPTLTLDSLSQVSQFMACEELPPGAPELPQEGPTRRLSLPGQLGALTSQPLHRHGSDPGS

SMILES	hERG current change (%, negative = inhibition) at 1uM [%]
CC(=O)Nc1ccc(C(=O)N/N=C/C2CC3C=CC2C3)cc1 (centres unmarked)	12.5
O=C(N/N=C/c1ccc(OC(=O)c2cccs2)cc1)c1ccc(F)cc1	8.59
O=C(c1cccc(S(=O)(=O)Nc2ccc(Br)cc2)c1)N1CCC1	6.85
CCN(CC)S(=O)(=O)c1ccc(C)c(C)c1	8.53
CCOP(=O)(OCC)C(NC(=O)Nc1ccc(Cl)c(Cl)c1)C(N)=O (centres unmarked)	8.2
Cc1ccc(N(CC(=O)NCCc2ccccc2)C(=O)c2csnn2)cc1	7.46
Cc1cccc(N2CCN(C(=O)c3ccc(CS(=O)Cc4ccc(Cl)cc4)o3)CC2)c1C (centres unmarked)	1.68
CCNC(=O)Cc1ccc(NS(=O)(=O)c2ccc(F)cc2)cc1	8.41
Cc1ccccc1CNC(=O)CCc1ccccc1	13.8
CC(C)n1c(O)c(N=Nc2ccccn2)c2ccccc21	5.72
Cc1[nH]n(-c2ccc(Cl)cc2)c(=O)c1N=Nc1cccnc1	-1.8
Cc1cc(C)c(C)c(C(=O)COC(=O)CNC(=O)CNC(=O)c2ccco2)c1C	12.5
COc1ccc(CCC(=O)Nc2ccc3c(c2)OCO3)cc1	13.2
COc1ccc(/C=N/NC(=S)N[C@H]2CC3CCC2C3)cc1 (some centres unmarked)	9.42
CC(c1ccccc1C(O)c1ccccc1)N(C)C.Cl (centres unmarked)	3.62
CC(=O)c1ccc(C(=O)N2CCCC(N3CCN(c4ccc(F)cc4)CC3)C2)s1 (centres unmarked)	-51.3
O=C(NCCNc1ccc([N+](=O)[O-])cc1)c1cccc(Br)c1	6.77
CCN1CC=C2C(C#N)=C(N)C(C#N)(C#N)C(c3cc(Cl)ccc3Cl)C2C1 (centres unmarked)	-2.39
COc1ccc(S(=O)(=O)N2CCN(C)CC2)cc1Br	9.06
CCOc1ccc(CCNC(=O)C2CCN(c3nnc(-n4cccc4)s3)CC2)cc1OCC	2.88
O=C(CSc1nnc2c3ccccc3c3ccccc3c2n1)Nc1ccccc1F	10.6
CCCC(=O)Nc1ccc(-c2ccc(NC(=O)CCC)cc2)cc1	15.1
Br.O=C(CN1CCCCC1CO)c1ccc(OC(F)F)cc1 (centres unmarked)	-21.3
COc1ccc(C(O)P(=O)(OC(C)C)OC(C)C)c(OC)c1 (centres unmarked)	11.5
C=CCNC(=O)COc1ccc(Br)cc1Cl	-12.7
CC(=O)Nc1ccc(/C=N/NC(=S)NC(C)C)cc1	11.7
